Data from the CheMixHub viscosity set.

| Structure (SMILES) | viscosity (298.15 K, 101 kPa) | viscosity (303.15 K, 101 kPa) | viscosity (308.15 K, 101 kPa) | viscosity (318.15 K, 101 kPa) | viscosity (298.15 K, 101.33 kPa) | viscosity (313.15 K, 101 kPa) | further results |
| --- | --- | --- | --- | --- | --- | --- | --- |
| CCNCC |  |  |  |  |  |  | viscosity (298.15 K, 100 kPa): 0.304 ± 0.008 mPa·s [study A] and 0.2954 mPa·s [study B] and 0.295 ± 0.1 mPa·s [study C] and 0.2954 mPa·s [study D]; viscosity (303.15 K, 100 kPa): 0.288 ± 0.007 mPa·s [study A] and 0.2842 ± 0.15 mPa·s [study B] and 0.288 ± 0.023 mPa·s [study C] and 0.284 ± 0.1 mPa·s [study D] and 0.2842 ± 0.15 mPa·s [study E]; viscosity (308.15 K, 100 kPa): 0.274 ± 0.007 mPa·s [study A] and 0.2698 mPa·s [study B] and 0.27 ± 0.1 mPa·s [study C] and 0.2698 mPa·s [study D] |
| Nc1ccccc1 | 3.64 ± 0.11 mPa·s, 3.722 ± 0.099 mPa·s, 3.708 ± 0.038 mPa·s, 3.773 ± 0.057 mPa·s, 3.773 ± 0.036 mPa·s, 3.72 ± 0.05 mPa·s, 3.778 ± 0.084 mPa·s, 3.721 ± 0.099 mPa·s, 3.867 ± 0.034 mPa·s, 3.167 ± 0.028 mPa·s [several studies] |  |  |  |  |  |  |
| CN(CCO)CCO |  | 57.5 ± 3.5 mPa·s [study A] and 59.76 ± 2.5 mPa·s [study B] and 57.23 ± 3.5 mPa·s [study C] and 57.14 ± 0.63 mPa·s [study D] | 44.21 ± 2.7 mPa·s [study A] and 46.2 ± 2.4 mPa·s [study B] and 42.98 ± 2.6 mPa·s [study C] and 43.75 ± 0.55 mPa·s [study D] | 27.51 ± 1.7 mPa·s [study A] and 29.8 ± 1.6 mPa·s [study B] and 26.12 ± 1.6 mPa·s [study C] and 26.84 ± 0.32 mPa·s [study D] |  |  |  |
| COCCOCCOCCO |  |  |  |  | 6.586 ± 0.073 mPa·s [study A] and 6.253 ± 0.33 mPa·s [study B] and 6.586 ± 0.14 mPa·s [study C] and 6.24 ± 0.1 mPa·s [study D] |  |  |
| CC(C)(C)O | 4.191 ± 0.11 mPa·s, 4.999 ± 0.13 mPa·s, 4.204 ± 0.044 mPa·s, 4.462 ± 0.061 mPa·s, 4.313 ± 0.068 mPa·s, 4.39 ± 0.025 mPa·s (2×), 4.309 ± 0.052 mPa·s, 4.445 ± 0.051 mPa·s, 4.345 ± 0.15 mPa·s, 4.456 ± 0.043 mPa·s [several studies] | 3.402 ± 0.042 mPa·s, 2.968 ± 0.13 mPa·s, 3.287 ± 0.025 mPa·s, 3.319 ± 0.053 mPa·s, 3.364 ± 0.02 mPa·s, 3.03 ± 0.66 mPa·s, 3.238 ± 0.04 mPa·s, 3.335 ± 0.91 mPa·s, 2.968 ± 0.27 mPa·s, 3.372 ± 0.11 mPa·s [several studies] | 2.658 ± 0.035 mPa·s, 2.646 ± 0.068 mPa·s, 2.548 ± 0.02 mPa·s, 2.645 ± 0.036 mPa·s, 2.63 ± 0.014 mPa·s, 2.643 ± 0.016 mPa·s (2×), 2.51 ± 0.031 mPa·s, 2.645 ± 0.091 mPa·s, 2.644 ± 0.033 mPa·s, 2.634 ± 0.027 mPa·s [several studies] | 1.73 ± 0.38 mPa·s [study A] and 1.635 ± 0.059 mPa·s [study B] and 1.702 ± 0.017 mPa·s [study C] and 1.697 ± 0.011 mPa·s [study D] | 4.238 mPa·s [study A] and 4.52 ± 0.023 mPa·s [study B] and 4.352 ± 0.05 mPa·s [study C] and 4.445 ± 0.19 mPa·s [study D] and 4.372 ± 0.032 mPa·s [study E] and 4.518 ± 0.035 mPa·s [study F] and 4.372 ± 0.18 mPa·s [study G] | 2.849 ± 0.81 mPa·s [study A] and 2.145 ± 0.2 mPa·s [study B] and 2.145 ± 0.1 mPa·s [study C] and 2.108 ± 0.026 mPa·s [study D] and 2.096 ± 0.029 mPa·s [study E] and 2.099 ± 0.034 mPa·s [study F] and 2.097 ± 0.012 mPa·s [study G] | viscosity (303.15 K, 101.33 kPa): 3.365 ± 0.075 mPa·s [study A] and 3.318 ± 0.021 mPa·s [study B] and 3.359 ± 0.051 mPa·s [study C] and 3.359 ± 0.15 mPa·s [study D] and 3.427 ± 0.026 mPa·s [study E]; viscosity (313.15 K, 101.33 kPa): 2.081 ± 0.048 mPa·s [study A] and 2.014 ± 0.031 mPa·s [study B] and 2.014 ± 0.12 mPa·s [study C] and 2.123 ± 0.017 mPa·s [study D] |
| NCCN |  |  | 1.13 ± 0.094 mPa·s [study A] and 1.05 ± 0.03 mPa·s [study B] and 1.12 ± 0.02 mPa·s [study C] and 1.08 ± 0.02 mPa·s [study D] and 1.191 ± 0.01 mPa·s [study E] | 0.97 ± 0.087 mPa·s [study A] and 0.953 ± 0.029 mPa·s [study B] and 0.93 ± 0.02 mPa·s [study C] and 0.93 ± 0.02 mPa·s [study D] and 0.9819 ± 0.008 mPa·s [study E] and 0.986 ± 0.008 mPa·s [study F] |  | 1.01 ± 0.088 mPa·s [study A] and 0.986 ± 0.029 mPa·s [study B] and 1.02 ± 0.02 mPa·s [study C] and 1.073 ± 0.0087 mPa·s [study D] and 1.08 ± 0.009 mPa·s [study E] |  |

± gives the uncertainty stated by the source. Not every entry of the source has a single result; some have several. This list holds those alone. The source may hold further records. The records of an entry are repeats (runs, samples, wells, individuals or studies). A tag in brackets gives the origin of a value. A, B and so on number the origins entry by entry. Additions like (4×) count equal records among those shown.
